Structures are written as SMILES. Among all 48,000 compounds or so, about 120 (0.25%) were called active. Roughly 4% stayed inconclusive and do not appear here. Calls come from the whole dose curve; as a rule, active = well fitted activation curve with a large enough effect; inconclusive = small, poorly fitted or top-dose-only effect, or another doubt; inactive = no such curve, though single readings can be large or run the other way. This is one part of the list.

The nature of this experiment: Primary qHTS for Identification of Small Molecule Activators of Huntingtin-Antisense Promoter Activity. Note: nearly all actives have a fitted effect of over 55% in size. The conditions noted are these: HEK293 HTT-AS promoter firefly luciferase reporter (activity 0% = vehicle and -100% = no light), 24 h; series mostly up to 57.5 µM; activity change, positive = activation: at the top concentration. Summed up:
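Firefly luciferase signal from promoter-reporter HEK293 cells was scaled between vehicle (0%) and zero RLU (-100%). Compounds were tested at final concentrations of up to 57.5 uM over 24 h at 37 degrees C. PTC124 at 50 uM final served as control inhibitor.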
For orientation: Quantitative high-throughput screening tests each substance at several concentrations.
Turning to `COc1ccc2c(c1)CC(C(=O)NCCN1CCN(c3cccc(Cl)c3)CC1)CO2` (stereo not given), the “activity change, positive = activation” value is inactive: -21.6%.

On to `O=C(c1ccc2c(c1)N(Cc1ccc(F)cc1)CCS2)N1CCN(c2ccccc2)CC1`, for which the “activity change, positive = activation” value is inactive: -31.8%. Regarding `NC(=O)NC1NC(=O)NC1=O` (stereo not given), the “activity change, positive = activation” value is inactive: 1.64%. The figure for `Cc1ccc(CNC(=O)c2sc3nc4n(c(=O)c3c2C)CCCC4)cc1` is inactive: 15%.

As to `Cc1nc(Oc2ccccc2C)c2oc3ccccc3c2n1`, the “activity change, positive = activation” value is inactive: -34.6%. In the case of `Cc1c(C2=CCN(S(=O)(=O)c3ccc(Br)cc3)CC2)c2ccccc2n1CC(=O)N1CCCC1`, the “activity change, positive = activation” value is inactive: -9.01%. For the molecule `Cc1ccc(CNC(=O)CSc2c3c(nc4ccc(Cl)cc24)CCCC3)cc1`, the “activity change, positive = activation” value was inactive: -5.66%. As for `Cc1cccc(Nc2nc(C)nc(N)c2S(=O)(=O)c2ccccc2)c1`, the figure is inactive: -15.1%.

For the molecule `CCOc1ccc(NC(=O)CN(Cc2ccccc2)S(=O)(=O)c2ccc(Cl)cc2)cc1`, the “activity change, positive = activation” value is inactive: -11.3%. Regarding `COc1ccc2nc3oc(C(=O)Nc4cccc(C(F)(F)F)c4)cc3cc2c1`, the “activity change, positive = activation” value was inactive: -12.8%. As for `Cc1cc(C)cc(NS(=O)(=O)c2ccc3c(c2)OCC(C(=O)N2CCCC2)O3)c1` (stereo not given), the figure is inactive: -23.6%; as for `Cc1ccc2nc(-c3ccc(C)c(NC(=O)Cc4ccccc4)c3)oc2c1`, inactive: -72.1%; as for `Cc1ccccc1CN1CCc2nc(N3CCN(c4ccccn4)CC3)ncc2C1`, inactive: -33.6%. In the case of `CCc1c(C)sc2c1CCN(C(=O)Nc1ccccc1C(=O)OC)C2c1ccc(F)cc1` (stereo not given), the “activity change, positive = activation” value is inactive: -0.945%. The figure for `CCNC(=O)c1c(NC(=O)COc2ccc(F)cc2)sc2c1CCCC2` is inactive: -5.37%; for `O=C(Nc1ccc(Br)cc1)N1CCC(CN2CCCC2)CC1` it is inactive: -15.8%. As for `COc1ccc(NC(=O)CSc2c3c(nc4ccc(Cl)cc24)CCCC3)cc1Cl`, the “activity change, positive = activation” value was inactive: -48%.

For `COc1ccc(N2CCN(CCCNC(=O)c3ccc4nc(CCc5ccccc5)oc4c3)CC2)cc1`, the “activity change, positive = activation” value is inactive: -14.7%.

For `CCOc1ccc(C2C(C(=O)Nc3ccc(OC)cc3)=C(C)Nc3nc(SCc4ccc(Cl)cc4)nn32)cc1` (stereo not given), the “activity change, positive = activation” value is inactive: 6.13%. The figure for `Cc1c(Cl)cccc1NC(=O)c1ccc(NC(=O)N2CCSc3ncccc32)cc1` is inactive: 11.1%; for `Cc1ccccc1NC(=O)CS(=O)(=O)c1cccc2nsnc12` it is inactive: -29.4%. Turning to `Cn1c(CNC(=O)CSc2n[nH]c(-c3ccccc3)n2)nc2ccccc21`, the “activity change, positive = activation” value is inactive: -6.71%. `CCCCCOC(=O)CSc1nc2sc3c(c2c(=O)n1Cc1ccccc1)CC(C)(C)OC3`: the “activity change, positive = activation” value is inactive: -5.13%. `CC(C)(C)C1CCc2c(sc(NC(=O)Cn3nnc(-c4cccc(C(F)(F)F)c4)n3)c2C#N)C1` (stereo not given): the “activity change, positive = activation” value was inactive: -15.7%.

As to `Fc1ccc(Nc2nc3nonc3nc2Nc2cccc(C(F)(F)F)c2)cc1`, the “activity change, positive = activation” value is inactive: -94.8%. The figure for `CCCCc1nn2c(=O)cc(COC(=O)c3ccc(NC(=O)c4cccs4)cc3)nc2s1` is inactive: -4.84%; for `CCN1CCSc2ccc(C(=O)NCc3cccc(F)c3)cc21` it is inactive: -4.2%. The figure for `O=C(Cn1c(=O)n(-c2ccc(Cl)cc2)c(=O)c2c3c(sc21)CCC3)c1ccc(F)cc1` is inactive: -7.21%; for `COc1ccccc1Cn1c(CNS(=O)(=O)c2ccc3c(c2)CCCC3)nc2cccnc21` it is inactive: -30.3%; for `COc1ccccc1N1CCN(C(=O)CSc2nc3ccccc3nc2Cc2ccc(F)cc2)CC1` it is inactive: -14.9%. Regarding `Cc1csc2nc(COc3ccc(NC(=O)COc4ccccc4F)cc3)cc(=O)n12`, the “activity change, positive = activation” value was inactive: -2.7%. Take `Cc1nc2sccn2c(=O)c1S(=O)(=O)Nc1ccc(N2CCN(S(C)(=O)=O)CC2)cc1`: the “activity change, positive = activation” value was inactive: -32.9%. For the molecule `Cc1ccc(-c2nc3ccccc3o2)cc1NC(=O)c1cccc2c(Cl)cccc12`, the “activity change, positive = activation” value is inactive: 18.2%. As to `CCC(=O)N1c2ccccc2CC1C(=O)NCCN1CCN(c2cccc(C)c2C)CC1` (stereo not given), the “activity change, positive = activation” value was inactive: -20.9%. As for `O=C(CSc1nc(-c2ccccc2)[nH]c1-c1ccccc1)Nc1ccc2c(c1)OCO2`, the “activity change, positive = activation” value is inactive: -27.6%. The figure for `Cc1cccc(Nc2nc(-c3ccccc3)c3cc(C)ccc3n2)c1` is inactive: -19.1%.

Regarding `O=[N+]([O-])c1cc(-c2nc(-c3ccccc3)no2)ccc1N1CCCC1`, the “activity change, positive = activation” value was inactive: -87.7%. Turning to `COc1cccc(CNC(=O)CCc2nnc3n(CC(C)C)c(=O)c4ccccc4n23)c1`, the “activity change, positive = activation” value is inactive: -9.9%. The figure for `Cc1sc2c(c1C)c(=O)n(-c1ccccc1)c(=O)n2CC(=O)c1ccc(Cl)cc1` is inactive: -10.4%.

For `Cc1ccc(NC(=O)CSc2nnc3[nH]c(=O)cc(C)n23)cc1Cl`, the “activity change, positive = activation” value is inactive: 13.7%. Turning to `CCC(Sc1nc2c(sc3ccccc32)c(=O)n1CCCC(=O)NC1CCCC1)C(=O)Nc1cccc(OC)c1` (stereo not given), the “activity change, positive = activation” value is inactive: -9.08%.

On to `CC(C)CC(=O)N1CC(=O)Nc2ccc(F)cc2C1c1ccccc1` (stereo not given), for which the “activity change, positive = activation” value was inactive: -1.34%. Consider `CC(C)OCCCn1c(SCC(=O)Nc2ccc(F)cc2)nc2c(sc3ccccc32)c1=O`, for which the “activity change, positive = activation” value was inactive: 0.424%. The entry for `NCCCC(N)(C(=O)O)C(F)F` (stereo not given) is “inactive”; for `COc1cc(CNC(=O)CSCc2nc3cccnc3n2C2CCCCC2)cc(OC)c1OC` it is inactive: -15%; for `CC(=O)Nc1ccc(OCCOCCOc2ccc(NC(C)=O)cc2)cc1` it is inactive: -6.7%. As for `Cc1ccc(C)c(NC(=O)CCc2nc(-c3ccc(C(C)(C)C)cc3)no2)c1`, the figure is inactive: -34.2%; as for `CCOc1cc(C#N)c(NC(=O)c2cccc(S(=O)(=O)N3CCOCC3)c2)cc1OCC`, inactive: -20%; as for `CCC(=O)N1CCc2cc(CNC(=O)Nc3ccccc3Cl)ccc21`, inactive: -0.878%. As for `O=C(CCNS(=O)(=O)c1ccc2c(c1)CCCC(=O)N2)NCc1ccccc1Cl`, the figure is inactive: -16.7%.
